Test results reported in PubChem BioAssay AID1030 (National Center for Advancing Translational Sciences (NCATS), 2008).
Among all 220,000 compounds or so, about 16,000 (7.3%) were called active. This list was built around the results that the source calls inconclusive (neither active nor inactive); the mix of calls is not that of the screen. Calls follow the shape of the dose curve; as a rule, active = well fitted inhibition curve with a large enough effect (not every such curve was filed as active); inconclusive = small, poorly fitted or top-dose-only effect, or another doubt; inactive = no such curve, though single readings can be large or run the other way. Potencies beside an inconclusive call are fits to weak or partial responses and may not hold up.

The molecules below were run against Aldehyde dehydrogenase 1A1 (Homo sapiens) (UniProt P00352) (assay: qHTS Assay for Inhibitors of Aldehyde Dehydrogenase 1 (ALDH1A1)). Conditions: Purified ALDH1A1, NADH fluorescence, propionaldehyde substrate; series mostly up to 75.3 µM; activity, negative = inhibition: at the top concentration.
Sequence of UniProt P00352 (P00352 whole entry, looked up): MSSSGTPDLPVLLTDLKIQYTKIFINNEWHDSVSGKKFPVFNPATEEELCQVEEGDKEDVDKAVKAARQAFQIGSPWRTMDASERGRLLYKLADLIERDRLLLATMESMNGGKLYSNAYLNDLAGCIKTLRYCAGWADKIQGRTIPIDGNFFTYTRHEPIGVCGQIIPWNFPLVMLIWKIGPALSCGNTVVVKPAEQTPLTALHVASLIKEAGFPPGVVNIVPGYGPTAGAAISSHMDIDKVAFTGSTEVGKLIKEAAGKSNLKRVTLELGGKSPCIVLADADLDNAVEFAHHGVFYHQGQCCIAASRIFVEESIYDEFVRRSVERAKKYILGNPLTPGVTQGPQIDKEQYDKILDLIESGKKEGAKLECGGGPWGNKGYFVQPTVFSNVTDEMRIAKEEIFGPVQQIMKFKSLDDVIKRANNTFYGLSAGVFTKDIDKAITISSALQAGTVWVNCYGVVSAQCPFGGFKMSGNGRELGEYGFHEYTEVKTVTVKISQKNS

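For activity, negative = inhibition in this document: plate controls were no enzyme wells and a reference inhibitor.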
Potency is read from the fitted curve at half-maximal effect; tags tell the direction and shape of the fitted curve.

Potency, inconclusive:
CCOC(=O)c1c(C)[nH]c(C(=O)COC(=O)/C=C/c2ccc(OCC#N)c(OC)c2)c1C 14.1 µM [inhibitor, single point]
COc1ccc(NC(=O)CN(C)CC(=O)Nc2ccc3c(c2)CCC3)cc1 12.6 µM [inhibitor, partial curve]
Cc1cc(S(=O)(=O)Nc2ccc(C(=O)N3CCN(C(=O)c4ccco4)CC3)cc2)ccc1F 39.8 µM [inhibitor, single point]
CCOC(=O)c1c(NC(=O)CSc2n[nH]c(N)n2)sc(CC)c1C 39.8 µM [inhibitor, single point]
C/C(=N\NC(=O)c1c(Cl)cnn1C)c1cccc(NC(=O)COc2ccccc2)c1 35.5 µM [inhibitor, single point]
O=c1c2ccccc2nnn1CSc1nnnn1-c1ccc(O)cc1 31.6 µM [inhibitor, single point]
O=C(CN1CCCCC1)Nc1ccc(N2CCCCCC2)cc1 39.8 µM [inhibitor, single point]
CCOC(=O)c1sc2nc(C)nc(Nc3ccccc3)c2c1C 35.5 µM [inhibitor, single point]
COc1ccc(-c2nc(CSCC(=O)NC3CCCc4ccccc43)c(C)o2)cc1OC (stereo not given) 28.2 µM [inhibitor, single point]
CC(/C=N/NC(=O)NC1CCCCC1)=C\c1ccccc1 39.8 µM [inhibitor, single point]
CC(C)[C@H](NC(=O)OC(C)(C)C)C(=O)N/N=C/c1cccc2nccnc12 39.8 µM [inhibitor, single point]
CCN(CC)C(=O)N1CCN(S(=O)(=O)c2c(C)cc(C)cc2C)CC1 14.1 µM [inhibitor, partial curve]
Cc1noc(C)c1C(=O)Nc1sc2c(c1C(N)=O)CCC2 31.6 µM [inhibitor, partial curve]
CN(C)c1ncc2nc(-c3cccc(C#N)c3)c(=O)n(C[C@H]3CCCO3)c2n1 4.47 µM [inhibitor, full curve]
Cc1cc(C)n2nc(C(=O)NCc3ccco3)cc2n1 39.8 µM [inhibitor, single point]
CCOc1ccc(CC(=O)OCN2C(=O)c3ccccc3C2=O)cc1 39.8 µM [inhibitor, single point]
Cc1ccc(-n2c(O)c(C=NC3CCS(=O)(=O)C3)c3ccccc3c2=O)cc1 (stereo not given) 39.8 µM [inhibitor, partial curve, poor fit]
NC(=O)COc1ccc2oc(-c3ccccc3)cc(=O)c2c1 28.2 µM [inhibitor, partial curve]
COc1ccc(N2CCC(CNC(=S)Nc3cccc(OC)c3)C2)cc1 (stereo not given) 28.2 µM [inhibitor, single point]
CN(C(=O)/C=C/c1ccc([N+](=O)[O-])s1)c1ccccc1 39.8 µM [inhibitor, single point]
CC(C)NCCCCOc1ccccc1-c1ccccc1 15.8 µM [inhibitor, partial curve]
O=C(O)c1ccc(COc2ccccc2/C=C2\NC(=O)N(Cc3ccccc3F)C2=O)cc1 28.2 µM [inhibitor, partial curve]
c1ccc(CCc2ccccc2-c2nc(-c3cccnc3)no2)cc1 39.8 µM [inhibitor, single point]
Cc1cccc(Cn2ccc(N)n2)c1 20 µM [inhibitor, single point]
COc1cccc(-c2cc(C(=O)N/N=C/c3ccc(OC)c(COC(C)=O)c3)c3ccccc3n2)c1 39.8 µM [inhibitor, single point]

Potency, inactive:
CC1(C(=O)NCc2ccccn2)C=CCN1C(=O)c1ccccc1 (stereo not given)

Potency, active:
COc1ccc2c(c1)CC/C(=C\Nc1ccc3c(c1)OCO3)C2=O 2 µM
CN(CC(=O)Nc1ccc(Cl)cc1)CC(=O)Nc1ccc(C(N)=O)cc1 31.6 µM
Cc1ccc(-n2c(C)cc(C=C3C(=O)CC(C)(C)CC3=O)c2C)cc1 0.891 µM
O=c1c(O)c(Br)ccc2c(Br)c(O)c(O)c(O)c12 8.91 µM
Cc1nn(C)c(C)c1NC(=O)c1ccnn1C 17.8 µM
CC(=O)/C(=N/Nc1ccccc1C)N1CCOCC1 17.8 µM
Cc1cc(C)cc(NS(=O)(=O)c2cnc(Cl)c(Cl)c2)c1 3.55 µM
CCOc1cc(C=C2C(=O)c3ccccc3C2=O)ccc1OCC(=O)Nc1ccc(C)cc1 15 µM
Cc1nn(-c2ccc3ccccc3c2)c(=O)c2ccccc12 20 µM

activity, negative = inhibition, inactive:
CCCN(CC(=O)Nc1cc(Cl)ccc1Cl)C(=O)/C=C/c1ccco1 7.74%
COc1ccc2ccccc2c1/C=N/NC(=O)c1cccc(Br)c1 -3.32%
O=C(CSc1nc2ccccc2s1)c1sc2sc3ccccc3[n+]2c1O -8.19% [at 13.5 µM]
Cn1c(NN)nc2sc3c(c2c1=O)CCC3 -9.42%
O=C(Nc1cccc([N+](=O)[O-])c1)Nc1cccs1 -8.6%
CCSC1=NN2CCS(=O)(=O)N=C2S1 2.08%
CCOC(=O)c1sc(NC(=O)CNC(=O)Cn2cnc3sc(C)c(C)c3c2=O)nc1C 1.23%
COc1ccc(CC(=O)OCCN(C)C)cc1 17.7%
Cc1cc(OCC(F)(F)C(F)(F)C(F)(F)C(F)(F)C(F)(F)C(F)F)nc(N)n1 -3.73%
O=C(Nc1ccccc1C(F)(F)F)N1CCN(c2ccccn2)CC1 -7.69%
O=C(CCCOc1ccccc1)NCCc1ccccc1 4.26%
COC(=O)C1=C(C)N2C(=O)CSC2=NC1c1ccc2c(c1)OCO2 (stereo not given) -3.24%
CC(C)C(=O)Nc1cccc(C(=O)Nc2nccs2)c1 -7.96%
CN(C)NC1=CC(=[N+]2CCCC2)CC(C)(C)C1 0.443%
O=C(Nc1cccc2c1CCCC2)c1ccncc1 -2.16%
